Experimental data reported in PubChem BioAssay AID1468 (National Center for Advancing Translational Sciences (NCATS), 2008).
Values joined by “and” are separate entries in the source; they are usually repeats but may differ in a detail not shown here. Identical values can stand only once. Hit rate of the full screen: of about 280,000 compounds, about 1,100 (0.39%) were called active. The shares of active, inactive and inconclusive entries below differ from those in the screen. Calls come from the whole dose curve; as a rule, active = well fitted inhibition curve with a large enough effect; inconclusive = small, poorly fitted or top-dose-only effect, or effect the other way; inactive = flat fitted curve, though single readings scatter. Potencies of inconclusive entries are doubtful fits and often do not repeat.

What follows are compounds tested against Microtubule-associated protein tau (Homo sapiens) (UniProt P10636) (assay: qHTS for Inhibitors of Tau Fibril Formation, Fluorescence Polarization). Settings: K18 P301L tau heparin fibrillization, Alexa594 FP, 6 h; series mostly up to 57.7 µM.
How it was run: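 FP of Alexa 594-tau after heparin (20 uM) induction. Substrate: human K18 P301L, 15 uM unlabeled, 0.24 uM labeled. Buffer 100 mM sodium acetate pH 7. 6 hr, 37 C.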
% is set by controls: 0 for no effect and ±100 for the full control effect; potency is the fitted concentration of half-maximal effect; tags give direction and shape of the fitted curve.
Note: nearly all actives have a fitted effect of over 55% in size.

Chain of UniProt P10636 (P10636 whole entry, looked up): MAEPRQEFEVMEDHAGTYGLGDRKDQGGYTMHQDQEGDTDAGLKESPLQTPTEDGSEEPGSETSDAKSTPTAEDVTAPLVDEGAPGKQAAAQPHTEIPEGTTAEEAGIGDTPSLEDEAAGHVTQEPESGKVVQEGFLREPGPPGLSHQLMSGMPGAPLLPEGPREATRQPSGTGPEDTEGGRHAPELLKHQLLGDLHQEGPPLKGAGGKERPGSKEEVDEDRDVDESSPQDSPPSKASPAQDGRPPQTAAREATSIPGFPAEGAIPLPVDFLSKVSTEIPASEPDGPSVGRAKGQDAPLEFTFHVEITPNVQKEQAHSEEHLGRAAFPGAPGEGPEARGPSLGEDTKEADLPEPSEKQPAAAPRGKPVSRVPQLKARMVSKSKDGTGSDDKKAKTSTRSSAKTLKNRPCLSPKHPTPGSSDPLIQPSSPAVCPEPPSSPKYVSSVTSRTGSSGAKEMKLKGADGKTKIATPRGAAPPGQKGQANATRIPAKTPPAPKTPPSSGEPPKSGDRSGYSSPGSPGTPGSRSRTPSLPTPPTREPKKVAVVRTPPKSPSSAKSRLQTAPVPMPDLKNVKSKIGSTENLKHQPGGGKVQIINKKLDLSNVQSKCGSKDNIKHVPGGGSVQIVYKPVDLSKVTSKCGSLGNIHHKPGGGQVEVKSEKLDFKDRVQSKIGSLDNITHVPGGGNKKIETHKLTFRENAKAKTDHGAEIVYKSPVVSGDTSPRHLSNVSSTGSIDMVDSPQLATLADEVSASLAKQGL

| SMILES | Potency | activity, negative = inhibition |
| --- | --- | --- |
| COc1cccc(N=C2SC(C(=O)Nc3cccc(Cl)c3)CC(=O)N2C)c1 (configuration not stated) | inconclusive: 7.08 µM [inhibitor, full curve] | – |
| CSCC(=O)Nc1cc(C)on1 | inconclusive: 1.12 µM [activator, full curve, poor fit] | – |
| CC(=O)N1CCc2c(sc3c2c(=O)n(-c2ccccc2)c(=O)n3Cc2cccc(C(F)(F)F)c2)C1 | inactive | – |
| Oc1ccc2ccccc2c1C=NC1CCCCC1 | inconclusive: 31.6 µM [inhibitor, single point] | – |
| Cc1cccc(Nc2nc(NCc3ccco3)c3ccccc3n2)c1 | inconclusive: 39.8 µM [activator, single point] | – |
| CSc1cccc(NC(=O)CC(c2ccc(F)cc2)N2Cc3ccccc3C2=O)c1 (configuration not stated) | inconclusive: 39.8 µM [inhibitor, single point] | – |
| C=Cc1ccc([C@H]2N[C@@H](C(=O)O)CC[C@@H]2C)cc1 | – | inactive: -9.16% [at 11.6 µM] |
| CN(C)S(=O)(=O)c1cccc(NC(=S)Nc2cccc3cnccc23)c1 | inconclusive: 3.16 µM [inhibitor, full curve] | – |
| COC(=O)Cc1ccc(NC(=S)NC2CC2)cc1 | inconclusive: 14.1 µM [inhibitor, partial curve] | – |
| O=C(CCS(=O)(=O)c1ccccc1)Nc1ccc(-c2nc3ccccc3s2)cc1 | inconclusive: 39.8 µM [inhibitor, partial curve] | – |
| COc1ccc(C(=O)c2c(N)c(-c3nc(-c4ccccc4)cs3)c3ccccn23)cc1 | inconclusive: 5.01 µM [activator, partial curve] | – |
| Cn1c(=O)n(C)c2cc(N3CCOCC3)c(NS(=O)(=O)c3ccc(Br)cc3)cc21 | inconclusive: 39.8 µM [inhibitor, partial curve] | – |
| CCOC(=O)c1sc(Nc2ccc(F)cc2)nc1C | inactive | – |
| COc1ccc(Br)cc1C1CC(=O)N2CN(Cc3ccccc3)CSC2=C1C#N (configuration not stated) | inconclusive: 39.8 µM [inhibitor, single point] | – |
| COc1cc2c(cc1OC)CN(c1ccc([N+](=O)[O-])cc1C#N)CC2 | inactive | – |
| O=C(O)c1ccc(N/N=C/c2ccc3nccnc3c2)cc1 | inactive | – |
| CC1=C([N+](=O)[O-])C(c2cccc(Br)c2)C2=C(N1)c1ccccc1C2=O (configuration not stated) | inconclusive: 39.8 µM [inhibitor, single point] | – |
| CCOc1ccc(CC(=O)Nc2sc(Cc3ccccc3)cc2C(N)=O)cc1OCC | inconclusive: 39.8 µM [inhibitor, single point] | – |
| CC(C)(C)C1CCc2c(C(=O)N/N=C/c3cccs3)csc2C1 (configuration not stated) | inconclusive: 20 µM [inhibitor, partial curve] | – |
| Cc1ccc(-c2cc(C(=O)Nc3ccc(S(=O)(=O)Nc4nccs4)cc3)c3ccccc3n2)c(C)c1 | inconclusive: 20 µM [inhibitor, single point] | – |
| Cc1ccc2ccc3cc(C(=O)Nc4ccc(C)c(F)c4)nc3c2[nH]1 | inconclusive: 39.8 µM [inhibitor, single point] | – |
| CCOC(=O)c1ccc(CN(Cc2ccc(F)cc2)S(=O)(=O)c2cc(C(=O)Nc3ccccc3CC)ccc2F)cc1 | inactive | – |
| O=S(=O)(c1ccc(Cl)cc1)c1nnn2c1nc(NCc1ccccc1)c1sccc12 | inconclusive: 12.6 µM [inhibitor, partial curve] | – |

| SMILES | Potency | activity, negative = inhibition |
| --- | --- | --- |
| CCOc1ccc(NC(=O)CCc2c(C)nc3c(c(C)nn3-c3ccccc3)c2C)cc1 | inactive | – |
| CSc1ccc(/C=C/c2nc3ccccc3n2S(=O)(=O)c2ccc(F)c(C)c2)cc1 | inconclusive: 44.7 µM [inhibitor, single point] | – |
| COc1ccccc1-c1cc(C(=O)NCc2ccc(Cl)cc2)no1 | inconclusive: 6.31 µM [inhibitor, full curve] | – |
| COc1c(Cl)ccc(Cl)c1C(=O)O | inactive | – |
| CCCCCCC(=O)Cc1cc(OC)c(OC)cc1C=C(C(=O)OCC)C(=O)OCC | inconclusive: 25.1 µM [inhibitor, partial curve] | – |
| COc1ccc(CC(=O)Nc2ccc(-c3nc4ccccc4s3)c(C)c2)cc1 | inconclusive: 0.112 µM [inhibitor, full curve, poor fit] | – |
| COc1ccc(NC(=O)c2ccc3oc(=O)c(S(=O)(=O)c4ccc(F)cc4)cc3c2)c(OC)c1 | inconclusive: 25.1 µM [inhibitor, partial curve, poor fit] | – |
| COc1ccc(C(=O)Oc2ccc(C3NC(=O)c4c(sc5c4CCN(C)C5)N3)cc2OC)cc1 (configuration not stated) | inconclusive: 20 µM [inhibitor, single point] | – |
| Cc1ccc(C2=NN=C(NC(=O)C(F)(F)F)SC2)cc1 | inconclusive: 3.16 µM [inhibitor, partial curve, poor fit] | – |
| COc1ccc(-c2nnc(SCc3ccccc3)n2N)cc1 | inactive | – |
| COc1ccc(CCNC(=O)CSc2nn(-c3ccccc3)c(=S)s2)cc1 | inconclusive: 0.0562 µM [inhibitor, full curve, poor fit] | – |
| COc1cc(/C=N/NC(=O)C2=NNC(=O)C2C)ccc1O (configuration not stated) | inactive | – |
| COc1ccc(Cl)cc1-c1nc(SCC(=O)N(C)C)n[nH]1 | inactive | – |
| COc1ccc(NC(=O)CSc2c(C(C)C)cnc3c2c(=O)n(C)c(=O)n3C)c(OC)c1 | inactive | – |
| CCc1ccc(NC(=O)N(CCCN2CCOCC2)Cc2cccs2)cc1 | inactive | – |
| Cc1cccc(NC(=S)NC(=O)c2ccc(Br)o2)c1C | inactive | – |
| COc1ccc(NC(=O)C(=O)N2N=C3CCCCC3C2(O)C(F)(F)F)cc1 (configuration not stated) | inactive | – |
| Cc1ccc(CSCC(=O)Nc2c(C)n(C)n(-c3ccccc3)c2=O)cc1 | inconclusive: 8.91 µM [inhibitor, single point] | – |
| Cc1cccc(N2CCN(C(=O)C3CCN(S(=O)(=O)c4cccnc4)CC3)CC2)c1C | inconclusive: 2.24 µM [activator, single point] | – |
| Cn1cc(Br)c(-c2cccc(NC(=O)CCCC(=O)O)c2)n1 | inactive | – |
| Cc1ccccc1-c1cc(C(=O)Nc2sc(C(=O)OC(C)C)c(C)c2C#N)c2ccccc2n1 | inactive | – |
| COc1ccc(C(=O)NCC(c2ccc3c(c2)OCO3)N2CCN(C)CC2)cc1OC (configuration not stated) | inactive | – |
| COC(=O)c1c(-c2ccc(C)cc2)csc1NC(=S)NC(=O)c1cc(OC)cc(OC)c1 | inconclusive: 3.98 µM [inhibitor, partial curve, poor fit] | – |

| SMILES | Potency | activity, negative = inhibition |
| --- | --- | --- |
| Cc1c(N)cccc1-c1nc2ccccc2[nH]1 | inactive | – |
| CC(C)(C)c1cc(NCCCn2ccnc2)n2ncc(-c3ccc(Cl)cc3)c2n1 | inconclusive: 6.31 µM [activator, partial curve, poor fit] | – |
| O=C(Nc1ccc(F)c(F)c1)c1ccc(F)c(S(=O)(=O)N2CCC3(CC2)OCCO3)c1 | inconclusive: 31.6 µM [inhibitor, partial curve] and inconclusive: 5.62 µM [inhibitor, partial curve] | – |
| CC(C)CNc1cc(NC2CCCCC2)c2c3c(onc13)-c1ccccc1C2=O | inactive | – |
| O=[N+]([O-])c1ccc(-c2c[nH]c(=S)[nH]2)cc1 | inconclusive: 31.6 µM [inhibitor, single point] | – |
| O=C(CCCSc1nc2ccccc2[nH]1)Nc1ccccc1 | inconclusive: 14.1 µM [inhibitor, partial curve] | – |
| CC(=O)NCCNC(=O)c1ccc2c(=O)n(CCc3ccccc3)c(=O)[nH]c2c1 | inconclusive: 7.08 µM [inhibitor, partial curve, poor fit] | – |
| Cc1nn(-c2ccccc2)c(Cl)c1/C=N/Nc1ccc(S(=O)(=O)Nc2ccccc2C(=O)O)cc1[N+](=O)[O-] | inactive | – |
| CC(C)C[C@H](NC(=O)c1nc[nH]c1C(=O)NCC(=O)OC(C)(C)C)C(=O)OCc1ccccc1 | inconclusive: 31.6 µM [inhibitor, single point] | – |
| CN(C)c1ccc(S(=O)(=O)NCC(=O)OCC(=O)Nc2cc(Cl)cc(Cl)c2)cc1[N+](=O)[O-] | inconclusive: 7.08 µM [inhibitor, partial curve] | – |
| CC(C)(C)C(=O)NC(Nc1cccc2cccnc12)C(Cl)(Cl)Cl (configuration not stated) | inconclusive: 39.8 µM [inhibitor, single point] | – |
| O=C(OCc1csc(-c2ccccc2)n1)c1ccc(O)cc1 | inconclusive: 31.6 µM [inhibitor, single point] | – |
| COc1ccc(S(=O)(=O)n2ccc(C(C)Oc3ccc(-c4ccccc4)c(F)c3)n2)cc1 (configuration not stated) | inconclusive: 22.4 µM [inhibitor, single point] | – |
| C#CCCCO/N=C1/C[C@@H](O)[C@@H](O)[C@@H]2[C@@H]3C(=O)N(C(C)(C)C)C(=O)[C@H]3CC[C@H]12 | – | inactive: 0.678% [at 11.6 µM] |
| CC(C)=NO[C@@H](C)c1cn([C@H](CO)Cc2ccccc2)nn1 | – | inactive: -2.66% [at 11.6 µM] and inactive: 6.26% [at 11.6 µM] |
| CC1CCN(c2ccccc2NC(=O)c2ccc(F)cc2)CC1 | inactive | – |
| CC(C)Cc1ccc(C(C)C(=O)Nc2ccccc2O)cc1 (configuration not stated) | inconclusive: 8.91 µM [inhibitor, single point] | – |
| CCOC(=O)c1sc(NC(=O)CSc2nnc(Cc3ccccc3)o2)c(C#N)c1C | inconclusive: 28.2 µM [inhibitor, partial curve] | – |
| Oc1ccccc1C1=NOC(O)(C(F)F)C1 (configuration not stated) | inactive | – |
| CCCCC1C(=O)N(c2ccccc2)N(c2ccc(O)cc2)C1=O (configuration not stated) | inconclusive: 15.8 µM [inhibitor, partial curve] | – |
| Cc1ccc2c(c1)N(CC(=O)O)C(=O)CO2 | inactive | – |
